# Assay results reported in article PMC9911399, “Two distinct binding modes provide the RNA-binding protein RbFox with extraordinary sequence specificity”.
# Positions count from the first letter of the chain named. This is one part of the list.
# T1: RBFOX1 RRM (Homo sapiens, UniProt Q9NWB1 109-208)
# T1 sequence: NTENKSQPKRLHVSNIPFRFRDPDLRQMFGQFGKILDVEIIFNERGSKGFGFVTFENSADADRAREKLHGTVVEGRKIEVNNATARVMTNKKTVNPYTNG
# B1: UAGUGAG (DNA:RNA)
# RNA: GGGAGACCGGAAUUCAGAUUGUCCUAGUGAGUUAAAUCCCGUCGUAGCCACCA
# DNA 1: CAATCTGAATTCCGGTCTCCC
# DNA 2: TGGTGGCTACGACGGGATT
# B2: CUGUCUA (DNA:RNA)
# RNA: B1 RNA with U25C, A26U, G29C, A30U, G31A
# DNA 1: CAATCTGAATTCCGGTCTCCC
# DNA 2: TGGTGGCTACGACGGGATT
# B3: AAUUCAU (DNA:RNA)
# RNA: B1 RNA with U25A, G27U, G29C, G31U
# DNA 1: CAATCTGAATTCCGGTCTCCC
# DNA 2: TGGTGGCTACGACGGGATT
# B4: CCUGCAA (DNA:RNA)
# RNA: B1 RNA with U25C, A26C, G27U, U28G, G29C, G31A
# DNA 1: CAATCTGAATTCCGGTCTCCC
# DNA 2: TGGTGGCTACGACGGGATT
# B5: GGCAAAC (DNA:RNA)
# RNA: B1 RNA with U25G, A26G, G27C, U28A, G29A, G31C
# DNA 1: CAATCTGAATTCCGGTCTCCC
# DNA 2: TGGTGGCTACGACGGGATT
# B6: GGAGUAA (DNA:RNA)
# RNA: B1 RNA with U25G, A26G, G27A, U28G, G29U, G31A
# DNA 1: CAATCTGAATTCCGGTCTCCC
# DNA 2: TGGTGGCTACGACGGGATT
# B7: CGGCUUA (DNA:RNA)
# RNA: B1 RNA with U25C, A26G, U28C, G29U, A30U, G31A
# DNA 1: CAATCTGAATTCCGGTCTCCC
# DNA 2: TGGTGGCTACGACGGGATT
# B8: UAGUUUC (DNA:RNA)
# RNA: B1 RNA with G29U, A30U, G31C
# DNA 1: CAATCTGAATTCCGGTCTCCC
# DNA 2: TGGTGGCTACGACGGGATT
# B9: GACUUUA (DNA:RNA)
# RNA: B1 RNA with U25G, G27C, G29U, A30U, G31A
# DNA 1: CAATCTGAATTCCGGTCTCCC
# DNA 2: TGGTGGCTACGACGGGATT
# B10: AAGAAUG (DNA:RNA)
# RNA: B1 RNA with U25A, U28A, G29A, A30U
# DNA 1: CAATCTGAATTCCGGTCTCCC
# DNA 2: TGGTGGCTACGACGGGATT
# B11: UCUCUCG (DNA:RNA)
# RNA: B1 RNA with A26C, G27U, U28C, G29U, A30C
# DNA 1: CAATCTGAATTCCGGTCTCCC
# DNA 2: TGGTGGCTACGACGGGATT
# B12: AUCGUAC (DNA:RNA)
# RNA: B1 RNA with U25A, A26U, G27C, U28G, G29U, G31C
# DNA 1: CAATCTGAATTCCGGTCTCCC
# DNA 2: TGGTGGCTACGACGGGATT
# B13: GAACGGA (DNA:RNA)
# RNA: B1 RNA with U25G, G27A, U28C, A30G, G31A
# DNA 1: CAATCTGAATTCCGGTCTCCC
# DNA 2: TGGTGGCTACGACGGGATT
# B14: UUUACUA (DNA:RNA)
# RNA: B1 RNA with A26U, G27U, U28A, G29C, A30U, G31A
# DNA 1: CAATCTGAATTCCGGTCTCCC
# DNA 2: TGGTGGCTACGACGGGATT
# B15: CUCCAAG (DNA:RNA)
# RNA: B1 RNA with U25C, A26U, G27C, U28C, G29A
# DNA 1: CAATCTGAATTCCGGTCTCCC
# DNA 2: TGGTGGCTACGACGGGATT
# B16: ACAGUUU (DNA:RNA)
# RNA: GGGAGACCGGAAUUCAGAUUGUCCACAGUUUUUAAAUCCCGUCGUAGCCACCA
# DNA 1: CAATCTGAATTCCGGTCTCCC
# DNA 2: TGGTGGCTACGACGGGATT
# B17: UCACAUC (DNA:RNA)
# RNA: B16 RNA with A25U, G28C, U29A, U31C
# DNA 1: CAATCTGAATTCCGGTCTCCC
# DNA 2: TGGTGGCTACGACGGGATT
# B18: UGUAUGU (DNA:RNA)
# RNA: B16 RNA with A25U, C26G, A27U, G28A, U30G
# DNA 1: CAATCTGAATTCCGGTCTCCC
# DNA 2: TGGTGGCTACGACGGGATT
# B19: UAUUCCC (DNA:RNA)
# RNA: B1 RNA with G27U, G29C, A30C, G31C
# DNA 1: CAATCTGAATTCCGGTCTCCC
# DNA 2: TGGTGGCTACGACGGGATT
# B20: UCCCUAG (DNA:RNA)
# RNA: B1 RNA with A26C, G27C, U28C, G29U
# DNA 1: CAATCTGAATTCCGGTCTCCC
# DNA 2: TGGTGGCTACGACGGGATT
# Target: T1, RBFOX1 RRM
# Assay: EMSA; HiTS-Eq, 1 nM pool, 10 min; buffer printed only for the single-RNA assays: 10 mM Tris pH 7.5, 150 mM NaCl, 3.4 mM EDTA, 0.001% NP-40, 30 C
# Conditions: tags: His6 N-terminal (pET28a); label: 5' 32P
# Method in brief: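 Purified RbFox RRM, wild type or mutant, was incubated for 10 min in 50 µL with 1 nM of a 5′-radiolabelled RNA pool carrying 7 randomized nucleotides, whose flanks were annealed to DNA oligonucleotides, over a series of increasing protein concentrations. Unbound RNA was resolved on 8% native PAGE, cut out, reverse-transcribed, barcoded by PCR and sequenced on an Illumina HiSeq 2500. Relative association constants were derived from changes in read counts for each RNA species versus the control reaction and normalised to the cognate motif.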
row,Binder,binding signal
1,B1,0.00819 KA relative to UGCAUGU
2,B2,0.00658 KA relative to UGCAUGU
3,B3,0.00344 KA relative to UGCAUGU
4,B4,0.00899 KA relative to UGCAUGU
5,B5,0.012 KA relative to UGCAUGU
6,B6,0.0102 KA relative to UGCAUGU
7,B7,0.00887 KA relative to UGCAUGU
8,B8,0.0169 KA relative to UGCAUGU
9,B9,0.00394 KA relative to UGCAUGU
10,B10,0.0156 KA relative to UGCAUGU
11,B11,0.00731 KA relative to UGCAUGU
12,B12,0.00521 KA relative to UGCAUGU
13,B13,0.00529 KA relative to UGCAUGU
14,B14,0.00506 KA relative to UGCAUGU
15,B15,0.00188 KA relative to UGCAUGU
16,B16,0.0041 KA relative to UGCAUGU
17,B17,0.00136 KA relative to UGCAUGU
18,B18,0.0297 KA relative to UGCAUGU
19,B19,0.00154 KA relative to UGCAUGU
20,B20,0.00644 KA relative to UGCAUGU
